# PubChem BioAssay (Tox21)
# Where “and” joins values, the source holds several entries; their conditions need not be identical. Equal values may be shown once. This list was built around the results that the source calls inconclusive (neither active nor inactive); the mix of calls is not that of the screen. For some assays here: A potency beside an inconclusive call is a rough fit, not a confirmed value. Some structures have more than one record in an assay (separate samples or runs), and their calls can disagree. Calls of active or inactive are those of the source. Unless noted, calls follow the shape of the dose curve; as a rule, active = well fitted curve in the direction sought with a large enough effect in the repeat runs; inconclusive = weak or mixed curves; inactive = no such curve, though single readings can be large; an effect the other way counts as inactive or inconclusive.
# Columns and labels:
# [1] = target: Peroxisome proliferator-activated receptor gamma (Homo sapiens) (UniProt P37231); test: qHTS assay to identify small molecule antagonists of the peroxisome proliferator-activated receptor gamma (PPARg) signaling pathway (AID 743191; calls by dose curve; also: nearly all actives have a fitted effect of over 30% in size; also: potency is read from the fitted curve at half-maximal effect; as to ratio activity, negative = inhibition: % is scaled to controls: 0 for no effect and ±100 for the full control effect); conditions: HEK293H PPARg-UAS-bla, beta-lactamase ratio, antagonist, 17 h; ratio activity, negative = inhibition: at 62.6 µM (top of the series) unless noted
# Chain of UniProt P37231 (P37231 whole entry, looked up): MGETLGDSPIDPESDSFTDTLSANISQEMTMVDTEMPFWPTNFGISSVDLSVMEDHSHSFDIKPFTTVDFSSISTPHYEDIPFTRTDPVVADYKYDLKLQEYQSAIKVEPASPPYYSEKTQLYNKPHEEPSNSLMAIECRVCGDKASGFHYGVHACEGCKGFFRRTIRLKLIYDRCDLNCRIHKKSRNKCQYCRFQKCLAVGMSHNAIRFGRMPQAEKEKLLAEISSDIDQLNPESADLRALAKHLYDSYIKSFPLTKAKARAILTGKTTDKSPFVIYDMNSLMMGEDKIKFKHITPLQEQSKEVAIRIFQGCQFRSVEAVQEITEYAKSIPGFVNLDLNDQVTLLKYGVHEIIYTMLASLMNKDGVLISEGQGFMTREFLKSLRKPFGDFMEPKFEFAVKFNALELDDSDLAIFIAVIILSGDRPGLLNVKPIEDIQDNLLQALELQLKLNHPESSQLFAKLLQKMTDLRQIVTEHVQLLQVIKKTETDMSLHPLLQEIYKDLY
# Summary of the method: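 GeneBLAzer PPARg UAS-bla HEK293H cells carrying a UAS-driven beta-lactamase reporter were plated at 3000 cells/well, preincubated 5 h at 37C, then given compound for 17 h at 37C; LiveBLAzer B/G FRET substrate was read after 1 h at room temperature.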
# [2] = qHTS assay to identify small molecule agonists of the AP-1 signaling pathway (AID 1159526; calls by dose curve; also: potency is read from the fitted curve at half-maximal effect; as to activation: % is scaled to controls: 0 for no effect and ±100 for the full control effect); conditions: ME-180 (cervical carcinoma) AP-1-bla reporter, beta-lactamase FRET ratio, 5 h; activation: at 76.8 µM (top of the series) unless noted
# [3] = qHTS assay to identify small molecule antagonists of the sonic hedgehog signaling (Shh) pathway (AID 1259369; calls by dose curve; also: nearly all actives have a fitted effect of over 45% in size; also: potency is read from the fitted curve at half-maximal effect)
# Summary of the method: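 NIH/3T3 stable Gli1-Luc clone, 2,000 cells/well, 4hr settle; cpd + conditioned medium 24hr; Luc reagent 30min RT; luminescence.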
# [4] = target: Cytochrome P450 2D6 (Homo sapiens) (UniProt P10635); test: Cytochrome P450 Family 2 Subfamily D Member 6 (CYP2D6) small molecule antagonists: luciferase reporter qHTS assay (AID 1671196); also: potency is read from the fitted curve at half-maximal effect; nearly all actives have a fitted effect of over 50% in size
# Chain of UniProt P10635 (P10635 whole entry, looked up): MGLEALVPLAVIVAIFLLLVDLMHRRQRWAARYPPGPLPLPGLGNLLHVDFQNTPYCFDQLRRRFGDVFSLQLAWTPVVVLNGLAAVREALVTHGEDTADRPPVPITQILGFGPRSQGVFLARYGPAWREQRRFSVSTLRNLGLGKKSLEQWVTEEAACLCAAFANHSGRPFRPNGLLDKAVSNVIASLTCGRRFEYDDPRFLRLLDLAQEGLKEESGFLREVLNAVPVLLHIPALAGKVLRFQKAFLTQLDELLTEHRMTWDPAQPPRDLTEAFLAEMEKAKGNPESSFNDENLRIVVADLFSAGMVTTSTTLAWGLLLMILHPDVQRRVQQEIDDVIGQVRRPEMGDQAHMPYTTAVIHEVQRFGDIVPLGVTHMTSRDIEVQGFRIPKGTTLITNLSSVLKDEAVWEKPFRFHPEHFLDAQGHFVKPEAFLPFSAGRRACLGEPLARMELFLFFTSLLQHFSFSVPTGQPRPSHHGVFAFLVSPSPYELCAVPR
# Summary of the method: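 Chemicals tested for interference with CYP2D6 activity; proluciferin substrate, NADPH regeneration, 1 h at room temperature, luminescent detection.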
# [5] = target: Cytochrome P450 2C19 (Homo sapiens) (UniProt P33261); test: Cytochrome P450 Family 2 Subfamily C Member 19 (CYP2C19) small molecule antagonists: luciferase reporter qHTS assay (AID 1671197); also: nearly all actives have a fitted effect of over 65% in size; also: potency is read from the fitted curve at half-maximal effect
# Chain of UniProt P33261 (P33261 whole entry, looked up): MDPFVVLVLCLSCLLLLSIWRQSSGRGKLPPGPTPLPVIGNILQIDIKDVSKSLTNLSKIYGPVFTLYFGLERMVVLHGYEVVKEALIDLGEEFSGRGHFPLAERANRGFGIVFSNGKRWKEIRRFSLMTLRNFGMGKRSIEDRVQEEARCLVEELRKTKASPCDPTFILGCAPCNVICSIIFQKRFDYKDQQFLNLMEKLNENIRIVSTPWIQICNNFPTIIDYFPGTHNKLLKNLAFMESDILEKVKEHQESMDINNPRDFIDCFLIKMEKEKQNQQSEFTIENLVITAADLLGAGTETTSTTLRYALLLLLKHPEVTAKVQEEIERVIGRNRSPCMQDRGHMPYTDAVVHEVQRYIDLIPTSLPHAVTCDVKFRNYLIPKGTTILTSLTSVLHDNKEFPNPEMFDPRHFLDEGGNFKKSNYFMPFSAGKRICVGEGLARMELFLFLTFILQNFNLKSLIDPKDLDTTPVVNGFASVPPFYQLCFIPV
# Summary of the method: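 Inhibition of CYP2C19 was scored from loss of luminescence in a P450-Glo proluciferin substrate assay, NADPH-started and run 1 h at 37C, with ketoconazole as positive control.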
# [6] = target: Cytochrome P450 2C9 (Homo sapiens) (UniProt P11712); test: Cytochrome P450 Family 2 Subfamily C Member 9 (CYP2C9) small molecule antagonists: luciferase reporter qHTS assay (AID 1671198); also: potency is read from the fitted curve at half-maximal effect; nearly all actives have a fitted effect of over 50% in size
# Chain of UniProt P11712 (P11712 whole entry, looked up): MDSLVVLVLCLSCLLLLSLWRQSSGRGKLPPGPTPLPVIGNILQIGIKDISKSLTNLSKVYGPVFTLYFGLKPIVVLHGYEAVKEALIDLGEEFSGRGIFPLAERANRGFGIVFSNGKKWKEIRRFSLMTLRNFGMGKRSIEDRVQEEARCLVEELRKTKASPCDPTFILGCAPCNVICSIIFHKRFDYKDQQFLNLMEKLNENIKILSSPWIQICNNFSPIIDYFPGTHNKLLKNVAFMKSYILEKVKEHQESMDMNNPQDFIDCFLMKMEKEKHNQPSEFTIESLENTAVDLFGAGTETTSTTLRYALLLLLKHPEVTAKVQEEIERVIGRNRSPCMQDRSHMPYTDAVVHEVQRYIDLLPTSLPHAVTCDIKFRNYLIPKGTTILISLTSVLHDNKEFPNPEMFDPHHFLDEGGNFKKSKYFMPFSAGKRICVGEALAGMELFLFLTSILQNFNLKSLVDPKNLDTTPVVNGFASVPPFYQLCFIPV
# Summary of the method: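 CYP2C9 activity was measured with a P450-Glo proluciferin substrate. Enzyme–substrate mix was held with compound for 10 min at room temperature, then NADPH regeneration solution was added for 1 h at 37C. Luciferin product was read as luminescence.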
# [7] = qHTS assay for identifying genotoxic compounds that show differential cytotoxicity against isogenic chicken DT40 cell lines with known DNA damage response pathways - wild type cell line (AID 743012); conditions: DT40 wild type chicken cells viability, CellTiter-Glo, 40 h; activity change, negative = cytotoxicity: at 68.4 µM (top of the series) unless noted; also: nearly all actives have a fitted effect of over 60% in size; also: potency is read from the fitted curve at half-maximal effect; as to activity change, negative = cytotoxicity: % is scaled to controls: 0 for no effect and ±100 for the full control effect
# Summary of the method: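 Endpoint: CellTiter-Glo luminescence, 30 min RT. Cells: wild type DT40, 300/well. Exposure: compounds in DMSO, 40 h, 37 C/5% CO2, after ~0.5 h pre-incubation.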
# [8] = target: Cytochrome P450 1A2 (Homo sapiens) (UniProt P05177); test: Cytochrome P450 Family 1 Subfamily A Member 2 (CYP1A2) small molecule antagonists: luciferase reporter qHTS assay (AID 1671199); also: nearly all actives have a fitted effect of over 50% in size; also: potency is read from the fitted curve at half-maximal effect
# Chain of UniProt P05177 (P05177 whole entry, looked up): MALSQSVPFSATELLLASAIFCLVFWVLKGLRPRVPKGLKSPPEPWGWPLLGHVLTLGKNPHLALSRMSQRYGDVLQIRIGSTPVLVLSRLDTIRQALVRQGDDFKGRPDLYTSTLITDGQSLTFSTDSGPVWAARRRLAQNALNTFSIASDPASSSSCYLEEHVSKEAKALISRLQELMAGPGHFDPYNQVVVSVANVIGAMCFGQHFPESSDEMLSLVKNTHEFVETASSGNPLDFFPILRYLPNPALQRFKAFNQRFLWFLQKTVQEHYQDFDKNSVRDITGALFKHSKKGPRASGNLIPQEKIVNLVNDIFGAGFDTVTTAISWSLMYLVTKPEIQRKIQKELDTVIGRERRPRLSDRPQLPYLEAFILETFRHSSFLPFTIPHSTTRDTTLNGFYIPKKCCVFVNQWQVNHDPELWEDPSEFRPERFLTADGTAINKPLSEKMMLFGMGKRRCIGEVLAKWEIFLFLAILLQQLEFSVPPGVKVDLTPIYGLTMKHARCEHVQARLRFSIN
# Summary of the method: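 Read-out is luminescence from luciferin detection reagent (20 min) proportional to CYP1A2 activity; compounds in DMSO preincubated 10 min with enzyme and proluciferin substrate, then NADPH regeneration solution, 1 h, room temperature.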
# [9] = qHTS assay for small molecule disruptors of the mitochondrial membrane potential (AID 720635); conditions: HepG2 mitochondrial membrane potential, Mito-MPS dye ratio; ratio activity, negative = MMP loss: at 83.2 µM (top of the series) unless noted; also: potency is read from the fitted curve at half-maximal effect
# Summary of the method: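 HepG2 cells (2,000/well) attached overnight at 37C, then took compound for 1 hr at 37C, 5% CO2. Mito-MPS dye was added for 30 min; fluorescence was read at 490/535 nm (monomers) and 540/590 nm (aggregates).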
# [10] = target: Glucocorticoid receptor (Homo sapiens) (UniProt P04150); test: qHTS assay to identify small molecule antagonists of the glucocorticoid receptor (GR) signaling pathway (AID 720692; active = well fitted inhibition curve with a large enough effect in the signal ratio in the repeat runs, not every such curve was filed as active; inconclusive = weak or mixed curves, or effect the other way; inactive = no such curve, though single readings can be large or run the other way; the % refers to the signal ratio; also: % is scaled to controls: 0 for no effect and ±100 for the full control effect); conditions: GR-bla HeLa, beta-lactamase FRET ratio, dexamethasone-stimulated, 18 h; activity change, negative = inhibition: at 58.5 µM (top of the series) unless noted
# Chain of UniProt P04150 (P04150 whole entry, looked up): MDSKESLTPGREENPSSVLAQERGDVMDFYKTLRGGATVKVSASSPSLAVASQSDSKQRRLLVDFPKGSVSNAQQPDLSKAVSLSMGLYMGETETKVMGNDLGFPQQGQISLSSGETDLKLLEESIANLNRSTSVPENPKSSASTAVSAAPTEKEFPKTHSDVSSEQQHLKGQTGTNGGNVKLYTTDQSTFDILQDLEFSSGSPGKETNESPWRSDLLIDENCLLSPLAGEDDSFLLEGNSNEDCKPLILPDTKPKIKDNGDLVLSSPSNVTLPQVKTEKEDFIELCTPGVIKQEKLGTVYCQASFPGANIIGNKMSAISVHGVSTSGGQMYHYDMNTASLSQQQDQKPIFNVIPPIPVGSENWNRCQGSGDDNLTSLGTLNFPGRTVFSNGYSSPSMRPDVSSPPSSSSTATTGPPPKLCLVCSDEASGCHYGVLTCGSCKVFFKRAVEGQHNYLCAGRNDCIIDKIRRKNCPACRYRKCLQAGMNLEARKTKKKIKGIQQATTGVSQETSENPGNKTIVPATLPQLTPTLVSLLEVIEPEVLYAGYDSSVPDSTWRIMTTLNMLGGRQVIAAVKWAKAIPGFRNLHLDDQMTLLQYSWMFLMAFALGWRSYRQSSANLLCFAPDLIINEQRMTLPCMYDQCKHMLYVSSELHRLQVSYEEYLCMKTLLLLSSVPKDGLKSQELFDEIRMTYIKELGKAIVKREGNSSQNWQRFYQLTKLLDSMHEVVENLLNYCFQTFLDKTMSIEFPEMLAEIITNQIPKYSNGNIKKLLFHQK
# Summary of the method: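 Tox21 10K library screened in concentration-response for blockade of dexamethasone (5 nM final)-induced GRE-bla reporter activity in HeLa cells; 18 h treatment, fluorescence read.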
# [11] = qHTS assay for identifying genotoxic compounds that show differential cytotoxicity against isogenic chicken DT40 cell lines with known DNA damage response pathways - Rev3 mutant cell line (AID 743014); conditions: chicken DT40 Rev3-/- viability, CellTiter-Glo, 40 h; activity, negative = cytotoxicity: at 68.4 µM (top of the series); also: nearly all actives have a fitted effect of over 55% in size; also: potency is read from the fitted curve at half-maximal effect
# [12] = target: Vitamin D3 receptor (Homo sapiens) (UniProt P11473); test: qHTS assay to identify small molecule antagonists of the vitamin D receptor (VDR) signaling pathway (AID 743223; active = well fitted inhibition curve with a large enough effect in the signal ratio in the repeat runs, not every such curve was filed as active; inconclusive = weak or mixed curves, or effect the other way; inactive = no such curve, though single readings can be large or run the other way; the % refers to the signal ratio; also: potency is read from the fitted curve at half-maximal effect); conditions: VDR-UAS-bla HEK293T, beta-lactamase FRET ratio, 16 h; activity change, negative = inhibition: at 61 µM (top of the series) unless noted
# Chain of UniProt P11473 (P11473 whole entry, looked up): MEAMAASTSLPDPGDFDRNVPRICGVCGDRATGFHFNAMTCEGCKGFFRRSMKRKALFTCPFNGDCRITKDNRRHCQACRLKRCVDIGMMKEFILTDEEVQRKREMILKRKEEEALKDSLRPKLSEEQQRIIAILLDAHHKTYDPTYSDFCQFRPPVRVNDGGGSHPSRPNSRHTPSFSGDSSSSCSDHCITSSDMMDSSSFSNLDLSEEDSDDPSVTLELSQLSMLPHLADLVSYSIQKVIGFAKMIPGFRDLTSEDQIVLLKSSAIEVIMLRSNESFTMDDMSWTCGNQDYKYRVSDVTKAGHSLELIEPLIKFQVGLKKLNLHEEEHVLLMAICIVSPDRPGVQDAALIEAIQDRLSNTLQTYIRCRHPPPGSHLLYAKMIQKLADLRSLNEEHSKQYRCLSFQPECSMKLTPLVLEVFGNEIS
# Summary of the method: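 Beta-lactamase reporter read-out: FRET substrate fluorescence after 2 h at room temperature, following 16 h exposure of VDR-bla cells to test compound plus 3 nM (final) 1alpha,25-dihydroxyvitamin D3 agonist at 37C.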
# [13] = qHTS assay to identify small molecule agonists of the progesterone receptor (PR) signaling pathway - cell viability counter screen (AID 1346799; calls by dose curve; also: % is scaled to controls: 0 for no effect and ±100 for the full control effect; nearly all actives have a fitted effect of over 45% in size)
# Summary of the method: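 HEK293T PR-UAS-bla, 3,000 cells/well, 2% charcoal-stripped FBS; 6 h settle, compound 16 h at 37C/5% CO2; LiveBLAzer 2 h RT, then CellTiter-Glo 30 min RT, luminescence read.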
# [14] = target: Progesterone receptor (Homo sapiens) (UniProt P06401); test: qHTS assay to identify small molecule antagonists of the progesterone receptor (PR) signaling pathway (AID 1346795; active = well fitted inhibition curve with a large enough effect in the signal ratio in the repeat runs, not every such curve was filed as active; inconclusive = weak or mixed curves; the % refers to the signal ratio; also: potency is read from the fitted curve at half-maximal effect); conditions: PR-UAS-bla HEK293T, beta-lactamase FRET ratio, 16 h; activity change, negative = inhibition: at 92.4 µM (top of the series) unless noted
# Chain of UniProt P06401 (P06401 whole entry, looked up): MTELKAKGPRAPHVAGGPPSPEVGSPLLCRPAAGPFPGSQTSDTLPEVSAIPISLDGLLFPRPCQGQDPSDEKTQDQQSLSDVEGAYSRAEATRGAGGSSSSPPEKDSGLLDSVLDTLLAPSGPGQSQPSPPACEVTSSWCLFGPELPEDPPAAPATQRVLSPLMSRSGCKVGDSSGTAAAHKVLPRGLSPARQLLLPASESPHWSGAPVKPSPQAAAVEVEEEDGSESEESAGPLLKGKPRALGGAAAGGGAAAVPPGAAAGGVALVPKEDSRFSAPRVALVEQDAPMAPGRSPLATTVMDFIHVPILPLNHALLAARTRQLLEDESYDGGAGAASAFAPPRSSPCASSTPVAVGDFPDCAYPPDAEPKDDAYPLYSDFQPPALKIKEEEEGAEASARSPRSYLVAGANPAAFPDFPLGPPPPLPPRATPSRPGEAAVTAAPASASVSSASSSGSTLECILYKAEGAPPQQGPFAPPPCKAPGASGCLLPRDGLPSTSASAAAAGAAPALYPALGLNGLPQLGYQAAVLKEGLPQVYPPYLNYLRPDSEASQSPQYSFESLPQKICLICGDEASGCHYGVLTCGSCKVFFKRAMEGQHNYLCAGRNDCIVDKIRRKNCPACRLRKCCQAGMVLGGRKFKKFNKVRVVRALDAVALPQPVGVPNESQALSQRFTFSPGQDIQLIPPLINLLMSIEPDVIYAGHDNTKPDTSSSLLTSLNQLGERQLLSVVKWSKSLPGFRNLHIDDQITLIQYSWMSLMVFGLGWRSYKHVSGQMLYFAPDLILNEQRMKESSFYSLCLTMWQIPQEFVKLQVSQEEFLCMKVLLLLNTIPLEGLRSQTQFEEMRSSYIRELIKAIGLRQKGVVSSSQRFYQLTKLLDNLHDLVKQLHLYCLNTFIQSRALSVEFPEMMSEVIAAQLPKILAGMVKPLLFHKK
# Summary of the method: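 Beta-lactamase reporter, HEK293T PR-UAS-bla line; 2% charcoal-stripped FBS; 6 hr pre-incubation, 37C/5% CO2. Compound + R5020 1 nM final, 16 hr. LiveBLAzer B/G FRET substrate, 2 hr RT; fluorescence intensity read.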
# [15] = qHTS assay for small molecule agonists of the antioxidant response element (ARE) signaling pathway (AID 743202; active = well fitted activation curve with a large enough effect in the signal ratio in the repeat runs, not every such curve was filed as active; inconclusive = weak or mixed curves, or effect the other way; inactive = no such curve, though single readings can be large or run the other way; the % refers to the signal ratio; also: potency is read from the fitted curve at half-maximal effect); conditions: HepG2 ARE-bla reporter, beta-lactamase FRET, 16 h; activation: at 73.3 µM (top of the series) unless noted
# Summary of the method: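 Following a 16 h, 37 C exposure of reporter HepG2 cells (ARE-driven beta-lactamase, 2,000 cells/well) to compounds, FRET substrate was applied for 2 h at room temperature and fluorescence intensity recorded.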
# [16] = qHTS assay to identify small molecule agonists of the farnesoid-X-receptor (FXR) signaling pathway - cell viability counter screen (AID 743218); conditions: FXR-bla HEK293T viability, CellTiter-Glo luminescence, 16 h; viability change, negative = cytotoxic: at 62.6 µM (top of the series); also: % is scaled to controls: 0 for no effect and ±100 for the full control effect; nearly all actives have a fitted effect of over 45% in size
# Summary of the method: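 Same-well cytotoxicity check on FXR-UAS-bla HEK 293T cells: 5 h attachment, 16 h compound at 37 C, CellTiter-Glo luminescence read at room temperature after 30 min.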
# [17] = target: Retinoic acid receptor RXR-alpha (Homo sapiens) (UniProt P19793); test: qHTS assay to identify small molecule agonists of the RXR signaling pathway (AID 1159527; calls by dose curve; also: % is scaled to controls: 0 for no effect and ±100 for the full control effect; nearly all actives have a fitted effect of over 35% in size); conditions: HEK293T RXRa-UAS-bla, beta-lactamase ratio, 16 h; activation: at 76.8 µM (top of the series) unless noted
# Summary of the method: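 Agonist mode; 9-cis retinoic acid positive control. HEK 293T UAS-bla reporter cells, 2% charcoal-stripped FBS, 16 hr compound exposure at 37 C/5% CO2. LiveBLAzer B/G FRET substrate 2 hr RT; ex 405, em 460/530 nm.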
# [18] = qHTS assay to identify small molecule antagonists of the thyroid receptor (TR) signaling pathway - cell viability counter screen (AID 743064); conditions: GH3.TRE-Luc viability, CellTiter-Fluor, 24 h; activity change, negative = cytotoxic: at 70.3 µM (top of the series) unless noted; also: potency is read from the fitted curve at half-maximal effect; nearly all actives have a fitted effect of over 50% in size
# Summary of the method: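 GH3.TRE-Luc cells, 4 h pre-plating; cpd + T3 1 nM final; 37 °C 23.5 h; CellTiter-Fluor 30 min; fluorescence read.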
# [19] = qHTS assay to identify small molecule antagonists of the estrogen receptor alpha (ER-alpha) signaling pathway - cell viability counter screen (AID 743074; calls by dose curve;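 also: HEK293 cells carrying ER-alpha-UAS-bla reporter stimulated with 17beta-estradiol; nearly all actives have a fitted effect of over 45% in size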; also: potency is read from the fitted curve at half-maximal effect)
# Tags tell the direction and shape of the fitted curve or compound fluorescence and quenching.
smiles,measurement,setting,value
CC(C(=O)c1ccccc1)N(C)C (stereo not drawn),"ratio activity, negative = inhibition",[1],inconclusive: -4.75%
same,Potency,[2],inactive
same,Potency,[3],"inconclusive: 6.68 µM [inhibitor, single point]"
same,Potency,[4],"inconclusive: 15.5 µM [inhibitor, partial curve]"
same,Potency,[5],active: 4.9 µM
same,Potency,[6],"inconclusive: 30.9 µM [inhibitor, partial curve, poor fit]"
CCC1(c2ccccc2)CCC(=O)NC1=O (stereo not drawn),Potency,[7],inactive
same,"ratio activity, negative = inhibition",[1],inconclusive: -0.736%
same,Potency,[2],inactive
same,Potency,[3],inactive
same,Potency,[8],inactive
O=C(O)C(F)(F)C(F)(F)C(F)(F)C(F)(F)C(F)(F)F,Potency,[9],"inconclusive: 15.4 µM [inhibitor, full curve, poor fit]"
same,Potency,[10],inactive
same,Potency,[11],"inconclusive: 30.6 µM [cytotoxic, full curve, poor fit]"
same,Potency,[1],"inconclusive: 54.9 µM [activator, partial curve]"
same,Potency,[12],inactive
same,Potency,[2],inactive
same,Potency,[13],inactive
same,Potency,[5],"inconclusive: 89.4 µM [inhibitor, single point]"
Oc1cccc(-c2ccccc2)c1,Potency,[2],"inconclusive: 38.9 µM [activator, partial curve]"
same,Potency,[3],"inconclusive: 54.5 µM [inhibitor, partial curve, poor fit]"
same,Potency,[14],active: 30.6 µM
same,Potency,[4],"inconclusive: 44.8 µM [inhibitor, partial curve, poor fit]"
same,Potency,[6],inconclusive: 79.6 µM [inhibitor]
same,Potency,[8],active: 17.8 µM
CC(=O)[O-].CC(=O)[O-].CC(=O)[O-].[Cr+3],Potency,[7],"inconclusive: 68.3 µM [cytotoxic, single point]"
same,Potency,[11],active: 60.9 µM
same,Potency,[15],"inconclusive: 30.5 µM [falling, partial curve, poor fit]"
same,Potency,[2],"inconclusive: 54.7 µM [activator, single point]"
same,Potency,[3],"inconclusive: 68.3 µM [inhibitor, single point]"
CC(N)=S,Potency,[1],inactive
same,Potency,[16],inactive
same,Potency,[12],inactive
same,Potency,[2],inactive
same,Potency,[6],"inconclusive: 39.9 µM [inhibitor, partial curve, poor fit]"
same,Potency,[8],"inconclusive: 35.6 µM [inhibitor, partial curve]"
Cc1ccc(C(=O)Cl)cc1,Potency,[2],inconclusive: 21.9 µM [activator]
same,Potency,[5],"inconclusive: 89.4 µM [inhibitor, single point]"
c1ccncc1,Potency,[17],inactive
CC(CCc1ccccc1)NC(C)C(O)c1ccc(O)cc1 (stereo not drawn),Potency,[9],"inconclusive: 23.7 µM [activator, partial curve, poor fit]"
same,"activity change, negative = inhibition",[10],inconclusive: 9.43%
same,Potency,[7],inconclusive: 29.8 µM [cytotoxic]
same,Potency,[11],"inconclusive: 2.66 µM [cytotoxic, partial curve, poor fit]"
same,"ratio activity, negative = inhibition",[1],inconclusive: 0%
same,activation,[15],inconclusive: -23.9%
same,Potency,[16],inactive
same,Potency,[12],inconclusive: 0.0007 µM
same,Potency,[2],"inconclusive: 0.0535 µM [falling, full curve, poor fit]"
same,Potency,[8],active: 15.5 µM
O=c1c2ccccc2c(=O)c2c1cc(Cl)c1[nH]c3c([nH]c12)c(Cl)cc1c(=O)c2ccccc2c(=O)c13,Potency,[9],"inconclusive: 43.3 µM [rising, partial curve, poor fit]"
same,Potency,[10],inactive
same,Potency,[1],inactive
same,Potency,[2],inconclusive: 6.16 µM [activator]
same,Potency,[3],"inconclusive: 77 µM [inhibitor, partial curve, poor fit]"
same,Potency,[6],"inconclusive: 39.9 µM [inhibitor, partial curve, poor fit]"
same,Potency,[8],"inconclusive: 35.6 µM [inhibitor, partial curve]"
O=[N+]([O-])c1ccccc1-c1ccccc1,Potency,[9],inactive
same,Potency,[11],inactive
same,Potency,[1],inactive
same,Potency,[2],"inconclusive: 43.7 µM [activator, partial curve, poor fit]"
same,Potency,[14],inactive
same,Potency,[6],active: 25.2 µM
NC(=O)CCl,Potency,[2],"inconclusive: 0.0616 µM [activator, partial curve]"
same,Potency,[3],"inconclusive: 2.43 µM [inhibitor, full curve, poor fit]"
C[N+](C)(C)Cc1ccccc1,"activity change, negative = inhibition",[10],inconclusive: 29%
same,Potency,[18],"inconclusive: 34.3 µM [rising, partial curve]"
same,"ratio activity, negative = inhibition",[1],inconclusive: -0.0209% and inconclusive: -5.1% and inconclusive: -3.61%
same,Potency,[15],inactive
same,"activity change, negative = inhibition",[12],inconclusive: 6.17%
same,activation,[2],inconclusive: 13.6%
same,Potency,[3],"inconclusive: 0.243 µM [inhibitor, single point]"
same,Potency,[13],inactive
same,Potency,[5],active: 31.6 µM and inactive
same,Potency,[6],"inconclusive: 63 µM [inhibitor, partial curve]"
same,Potency,[8],"inconclusive: 63.3 µM [inhibitor, partial curve, poor fit] and inconclusive: 28.3 µM [inhibitor, full curve]"
CCCCSP(=O)(SCCCC)SCCCC,Potency,[11],inconclusive: 53.2 µM [cytotoxic] and inactive
same,Potency,[18],"inconclusive: 59.7 µM [cytotoxic, single point] and inconclusive: 68.6 µM [cytotoxic, partial curve, poor fit]"
same,Potency,[19],"inconclusive: 24 µM [cytotoxic, partial curve, poor fit] and inactive"
same,"ratio activity, negative = inhibition",[1],inconclusive: 15.6% and inconclusive: -8.37%
same,Potency,[2],"inconclusive: 34.7 µM [activator, partial curve, poor fit]"
same,Potency,[14],active: 23.8 µM and active: 24.3 µM
same,Potency,[4],"inconclusive: 77.8 µM [inhibitor, single point] and inconclusive: 28.3 µM [inhibitor, full curve]"
same,Potency,[8],active: 21.9 µM and active: 12.6 µM
